Measured values: patent US4065570A (priority 1975, dated 1977)

Key:
Polio I = experiment: organism not typed; assay type: cell-based; details: Vero

COc1ccc(C=C2C(=O)N(C(C)=O)C(=O)N2C(C)=O)cc1OC [Example 32, N,N-diacetylated 5-(3',4'-dimethoxybenzal) hydantoin]
inhibition at 1 µg/mL (Polio I; 56.2 TCID50, 1 μg/ml): 86%
inhibition at 5 µg/mL (Polio I; 56.2 TCID50, 5 μg/ml): 100%
inhibition at 10 µg/mL (Polio I; 56.2 TCID50, 10 μg/ml): 100%
inhibition at 50 µg/mL (Polio I; 56.2 TCID50, 50 μg/ml): 100%

Acetylated 5-(2',4',5'-trimethoxybenzal) hydantoin [Example 22]
% Inhibition (Coxsackie B3; 0.07 μg/ml): 37% and 43%
% Inhibition (Coxsackie B3; 0.1 μg/ml): 50%
% Inhibition (Coxsackie B3; 0.3 μg/ml): 75% and 90%
% Inhibition (Coxsackie B3; 0.7 μg/ml): 88% and 97%
% Inhibition (Coxsackie B3; 1 μg/ml): 90% and 100%

Acetylated 5-(3',4',5'-trimethoxybenzal) hydantoin [Example 23]
% Inhibition (Polio I; 17.8 TCID50, 0.1 μg/ml): 21%
% Inhibition (Polio I; 17.8 TCID50, 0.3 μg/ml): 32%
% Inhibition (Polio I; 17.8 TCID50, 0.7 μg/ml): 42%
% Inhibition (Polio I; 17.8 TCID50, 1 μg/ml): 56%
% Inhibition (Polio I; 17.8 TCID50, 3.3 μg/ml): 60%
% Inhibition (Polio I; 17.8 TCID50, 6.7 μg/ml): 95%
% Inhibition (Polio I; 17.8 TCID50, 10 μg/ml): 100%
% Inhibition (Coxsackie B3; 1 μg/ml): 68% and 88%
% Inhibition (Coxsackie B3; 3.3 μg/ml): 88% and 100%
% Inhibition (Coxsackie B3; 6.7 μg/ml): 93% and 100%
% Inhibition (Coxsackie B3; 10 μg/ml): 97% and 100%

Acetylated 5-(3',4',-Dimethoxybenzal) hydantoin [Example 14]
% Inhibition (Coxsackie B3; 0.5 μg/ml): 88%
% Inhibition (Coxsackie B3; 1 μg/ml): 97%
% Inhibition (Coxsackie B3; 5 μg/ml): 100%
% Inhibition (Coxsackie B3; 10 μg/ml): 100%

Acetylated 5-(3',4'-dimethoxybenzal) hydantoin
% Inhibition (Coxsackie B3; 0.01 μg/ml): 20%
% Inhibition (Coxsackie B3; 0.05 μg/ml): 50%
% Inhibition (Coxsackie B3; 0.1 μg/ml): 75%
% Inhibition (Coxsackie B3; 0.5 μg/ml): 95%
% Inhibition (Coxsackie B3; 1 μg/ml): 100%

Acetylated 5-(3',5'-dimethoxybenzal) hydantoin [Example 21]
% Inhibition (Coxsackie B3; 0.5 μg/ml): 25% and 21%
% Inhibition (Coxsackie B3; 1 μg/ml): 50% and 44%
% Inhibition (Coxsackie B3; 5 μg/ml): 100% and 99%
% Inhibition (Coxsackie B3; 10 μg/ml): 100%

Acetylated 5-(3'-methoxy-4'-acetoxybenzal) hydantoin [Example 15]
% Inhibition (Polio I; 56.2 TCID50, 0.1 μg/ml): 7%
% Inhibition (Polio I; 56.2 TCID50, 0.5 μg/ml): 19%
% Inhibition (Polio I; 56.2 TCID50, 1 μg/ml): 12%
% Inhibition (Polio I; 56.2 TCID50, 5 μg/ml): 100%
% Inhibition (Polio I; 56.2 TCID50, 10 μg/ml): 100%
% Inhibition (Coxsackie B3; 1 μg/ml): 4%
% Inhibition (Coxsackie B3; 5 μg/ml): 60%
% Inhibition (Coxsackie B3; 10 μg/ml): 80%

Acetylated 5-benzalhydantoin [Example 16]
% Inhibition (Polio I; 56.2 TCID50, 1 μg/ml): 0%
% Inhibition (Polio I; 56.2 TCID50, 5 μg/ml): 0%
% Inhibition (Polio I; 56.2 TCID50, 10 μg/ml): 19%
% Inhibition (Coxsackie B3; 1 μg/ml): 0%
% Inhibition (Coxsackie B3; 5 μg/ml): 0%
% Inhibition (Coxsackie B3; 10 μg/ml): 25%

N-monoacetylated 5-(3',4'-dimethoxybenzal) hydantoin [Example 31]
% Inhibition (Coxsackie B3; 1 μg/ml): 0%
% Inhibition (Coxsackie B3; 5 μg/ml): 0%

“And” between values parts separate entries of the source, which are not always exact repeats. Identical values can stand only once. Like-named read-outs stand apart in the source and are kept apart here.
